Measured values from article PMC7855269 (FASEB journal : official publication of the Federation of …, 2020).

Molecular target: T1, GST-His-S-Stx17ΔC (Stx17 1–228) (UniProt P56962 1-228)
T1 sequence (looked up): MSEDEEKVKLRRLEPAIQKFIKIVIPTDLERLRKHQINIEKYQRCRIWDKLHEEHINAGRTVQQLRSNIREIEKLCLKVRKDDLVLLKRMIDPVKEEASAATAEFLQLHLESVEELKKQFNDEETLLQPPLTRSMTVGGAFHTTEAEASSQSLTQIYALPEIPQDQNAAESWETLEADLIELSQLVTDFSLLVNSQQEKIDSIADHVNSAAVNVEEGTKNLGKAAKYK
Experiment: pull-down

EC50: 600 nM
B1: FLAG-WT CFTR (cystic fibrosis transmembrane conductance regulator) (natural protein)
chain: not shown
